The other results are listed elsewhere or left out.
System: PF3D7_0420300 AP2 domain 1 (GST-tagged)
Experiment: gcPBM binding intensity (ln(normalized median fluorescence intensity)); higher = stronger DNA binding
Procedure, shortened: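 Each value is the highest Masliner-normalised natural-log median intensity across replicate spots of either orientation of a probe. The probes were primer-extended double-stranded 36-bp intergenic genomic sequences on an Agilent 4 × 180k array, alongside negative controls, exposed for 1 h to GST-tagged P. falciparum DNA-binding domains expressed in E. coli. Bound protein was picked up with Alexa488 anti-GST antibody and scanned at 488 nm.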

| Sequence | gcPBM binding intensity (ln) |
| --- | --- |
| ATAAGAAAATATAAAATGCACACTATAAATTGTATA [CACACA_site143] | 9.52 |
| TATATAGAGAGATATGCACACTGTATGAATGCCCCC [CACACA_site5476] | 10 |
| TATACCTATATACATACATGCAAATATATATTCATA [TGCATGCA_site269] | 9.21 |
| ATATGTCACTTGTATACACACATATATATTTCAATC [CACACA_site3256] | 9.72 |
| TTACTTATAAATAAATATACAAAAATGTTATATATA [XGTACX_negctrl_site223] | 8.85 |
| CTGAAAAAAAAGCTTGCACACGTATTTGCTTTATGT [CACACA_site8427] | 9.38 |
| TTTTTTTTTTTTGAAGTGCATTACTTTTTTTGTATT [GTGCAC_site9811] | 9.22 |
| TTTTTTGTGTTTGGTACACACGTTATAAAAAATAAA [CACACA_site4866] | 9.06 |
| AGGAATATAAAGTGCACACATAATTTGGGGGCAAAA [CACACA_site258] | 9.63 |
| GAAAATAGCTAAAATACACACAATTAAAAATTATTA [CACACA_site3506] | 9.39 |
| AAAAAAAAAAATAAATAAATAAATAAATATATATAT [TGCATGCA_negctrl_site468] | 9.24 |
| TACATACATATATATACACACATATATAATATATAT [CACACA_site388] | 9.5 |
| TATATATACATATACACACATACGTACATACATATA [CACACA_site3585] | 9.66 |
| ATATTCATATATACTTCACACACATTTTATCATTCA [CACACA_site8784] | 9.79 |
| ATGAAAGTAAGACATGCATGGAATTTTTTTTATTAG [TGCATGCA_site348] | 8.98 |
| ATAATCCAACTTTGAGTGCGTGGTGTTTTTTTTTTC | 9.53 |
| TTTCTTTTTTTTTTTTTTTCTTTTTTTTTTTTTTTC [CACACA_negctrl_site1025] | 8.9 |
| GGAATATTTTATGAGTGTACATTTTTTTTTTTTTTT [XGTACX_site2370] | 9.24 |
| ATAAAATAAACATAAATAAACATAAATAAACAAAAA [CACACA_negctrl_site1270] | 9.75 |

| Sequence | gcPBM binding intensity (ln) |
| --- | --- |
| AGGTATATATACATATGTACGTATATATATATATAT [XGTACX_site5115] | 9.52 |
| TATAATACAACATGCACACATATATATGTGAATCTC [CACACA_site2490] | 9.61 |
| TTTAAAAATAAAAGTACACACATAAACATATTACAC [CACACA_site1428] | 9.9 |
| TTATATAAATTATTTACACACAAACATTTATACTTT [CACACA_site3449] | 9.62 |
| GGCGTATGTGTATATACACACCCACGTATATAAATA [CACACA_site7489] | 9.35 |
| TTTCTAATTTATATCACACACATATTTATATAGTAA [CACACA_site6813] | 9.41 |
| ATACTTTATTCGTTAGCACACAATTCAAGTTGATTC [CACACA_site1123] | 9.42 |
| TATTCCCTTCTTCCTTCTGTTTTTGATATTAAAGGG [GTGCAC_negctrl_site270] | 9.32 |
| AAGATACCCCAAAATTGTACATATTAAAATAATAAA [XGTACX_site3603] | 9.24 |
| ATCCTCTTTACAATATGTACATAAATATATATTTAT [XGTACX_site8001] | 9.4 |
| TATATATTTTTATTATGTACATATTAACAATGTGTT [XGTACX_site879] | 9.2 |
| TATTTATTTATTTATTTATTTATTTATTTATATTTA [CACACA_negctrl_site398] | 8.96 |
| TATATATATAAATACACACACATATATATATATATA [CACACA_site4867] | 9.45 |
| TAAAATATAAAACACACACACATATATATATATATT [CACACA_site224] | 10 |
| AAGTAAAATAAGTATACACACATAAATATATATATA [CACACA_site685] | 9.66 |
| TATAATAATACGTATTGTACTATTAGGTTAATTCGT [XGTACX_site264] | 9.22 |
| TTTTCTTGTAAATTACGTACGAATGTGTAGAGAAAT [XGTACX_site1339] | 9.21 |
| ACTTGTAAGAAACACACACACACACCCATATATATA [CACACA_site796] | 10.4 |
| TCTATAAAGGAATATACACACATATATATATATATA [CACACA_site410] | 9.28 |

| Sequence | gcPBM binding intensity (ln) |
| --- | --- |
| TTGTTTCTACAATTTAATAAAATACGTTTTCAAAAA [XGTACX_negctrl_site377] | 8.69 |
| TACTCCTTAAATATATGTAAAGGAAGAAAAAAAAAA [XGTACX_negctrl_site306] | 9.02 |
| ACAATAAAAATAAAAAGTACAAATAAAAAAAATAAA [XGTACX_site6718] | 9.62 |
| AATATATGTTTAATTTCACACACAAATATACATTTT [CACACA_site9385] | 9.57 |
| ATATATATATATATATGTACACATATACGCTTTTTC [XGTACX_site3838] | 9.24 |
| TTTGAGATAAAAGACTGTACTTAGAATGTATAAAAA [XGTACX_site203] | 9.15 |
| AAAAAAAAAAAAAACTGTACCAAAAAGAATATATAC [XGTACX_site8345] | 9.63 |
| TTTAATTTTATATAGAGTACAAAAAAATAGAAAGAT [XGTACX_site3870] | 9.38 |
| ATATATATATATATATGTACATAAATATTTTAAAAT [XGTACX_site4980] | 9.17 |
| TATTTGTAAATTATTTGGGTGTGTAGGGGATATTCT [XGTACX_negctrl_site204] | 9.63 |
| TTTTTTTTTTTATTTGCATGCGGTGTTCATAATATT [TGCATGCA_site199] | 9.39 |
| CGTTCATATTATTATAGTACATATTATTATAGTTTT [XGTACX_site1550] | 9.47 |
| AGAAGAAAAGTAAAAAGTACATTATTCATGGCCTAT [XGTACX_site5601] | 9.23 |
| TTGGTGGATAAATTTACACACAATAACTTTCGTTCA [CACACA_site6358] | 9.46 |
| ATATAAGAAATAAAGAAAAATGTGTTTTTTTTTTTT [XGTACX_negctrl_site396] | 9.13 |
| TTTATCTTATTTTTATGTACTTATTTTATAAAAAAA [XGTACX_site7730] | 9.06 |
| AGAGCTGTTTTTTATGCATGTAGTTTAGAAAATACA [TGCATGCA_site257] | 8.94 |
| AAACAAATATTTATCACAATGTCATTTTGTTAACAT [GTGCAC_negctrl_site171] | 9.21 |

From the supplement of paper PMC11417369
